Data as given in PubChem BioAssay AID1963576 (National Center for Advancing Translational Sciences (NCATS), 2024).
The campaign covered roughly 46,000 compounds. About 60 (0.1%) were called active. About 3% were inconclusive and are not listed. The call rests on the fitted dose curve; in most records, active means well fitted inhibition curve with a large enough effect; inconclusive means small, poorly fitted or top-dose-only effect; inactive means no such curve, though single readings can be large or run the other way. This is one part of the list.

Assay: Primary qHTS assay for Inhibitors of ovarian cancer metastasis using an organotypic tumor microenvironment (TME) model. Further: nearly all actives have a fitted effect of over 65% in size.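 On activity change, negative = inhibition: plate controls were DMSO wells for no effect and tomatine positive control wells for full effect.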
Conditions: SKOV3ip1-GFP adhesion/invasion on 3D omental model, fluorescence; series mostly up to 45.8 µM; activity change, negative = inhibition: at the top concentration
Method in brief: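 Primary human omental fibroblast/mesothelial 3D culture pre-formed 48 h. SKOV3ip1-GFP cells added with compounds (0.36-46 umol/L), incubated 2 h RT/16 h 37 C, fixed; GFP cells quantified at 488/509 nm.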

SMILES | activity change, negative = inhibition | outcome
COc1ccc(OC(=O)c2nc(SCc3ccc(F)cc3)ncc2Cl)cc1 | inactive: 6.08% | 
O=c1c(S(=O)(=O)c2ccccc2)cn(Cc2cccc(F)c2)c2cc(N3CCOCC3)c(F)cc12 | inactive: 5.22% | 
CC(=O)Nc1ccc(NC(=O)CSc2nc3ccccc3nc2N2CCC(C)CC2)cc1 | inactive: -13.7% | 
COc1cccc(CNC(=O)c2cc(S(=O)(=O)N3CCCCC3)cn2C)c1 | inactive: -2.03% | 
COc1ccc(CNC(=O)CN2C(=O)CSc3ccc(S(=O)(=O)N4CCOCC4)cc32)c(OC)c1 | inactive: 9.77% | 
Cc1ccc(-n2ncc(C(=O)NCCc3c[nH]c4ccccc34)c2C2CCN(C(=O)OC(C)(C)C)CC2)cc1C | inactive: -1.32% | 
COc1ccc(NC(=O)CCS(=O)(=O)c2ccc3nc(C)sc3c2)cc1Cl | inactive: -2.06% | 
Cc1ccccc1Cn1c2ccccc2c2cnn(CC(=O)NCCc3ccccc3)c(=O)c21 |  | inactive
COc1cc(-c2noc(CCC(=O)Nc3cc(C)ccc3C)n2)cc(OC)c1OC |  | inactive
COc1ccc(NC(=O)C(Cc2ccccc2)n2cccc2)cc1OC (configuration not stated) |  | inactive
CCC(=O)Nc1ccc(CC)cc1-c1nc2ccccc2n(Cc2ccccc2)c1=O | inactive: 4.32% | 
CC(NC(=O)CN(c1ccc(Cl)cc1Cl)S(=O)(=O)c1ccccc1)c1ccccc1 (configuration not stated) | inactive: -4.08% | 
O=C(Cn1c(-c2cccs2)cc2cc(Cl)ccc21)N1CCN(c2ccccc2F)CC1 | inactive: 4.41% | 
CNC(=O)c1c(NC(=O)/C=C/c2ccccc2Cl)sc2c1CCC2 | inactive: -22.1% | 
Cc1ccccc1C(=O)N(Cc1nc(-c2ccc(Cl)cc2)no1)C(C)C | inactive: -4.04% | 
CCn1c(=O)c2sccc2n2c(CCC(=O)N3CCN(c4ccc(C(C)=O)cc4)CC3)nnc12 | inactive: -12.4% | 
Cc1ccc(OC(=O)CSc2nnc(-c3cccs3)o2)cc1 |  | inactive
CCOC(=O)C(C)NC(=O)C1CCN(c2ncnc3c2nc2n3CCCCC2)CC1 (configuration not stated) | inactive: 1.02% | 
Cc1cc(S(=O)(=O)NCC(c2ccco2)S(=O)(=O)c2ccccc2)ccc1F (configuration not stated) |  | inactive
Cc1cc(C)c(NC(=O)Cn2nnc(-c3ccccc3)n2)c(C)c1 |  | inactive
COc1ccc(F)cc1S(=O)(=O)Nc1cccc(-c2ccc(N3CCCCCC3)nn2)c1 | inactive: 1.12% | 
CCOc1ccccc1NC(=O)Cn1c(=O)n(Cc2ccccc2)c(=O)c2cccnc21 | inactive: 0.319% | 
O=C(Cn1ccc2cc(S(=O)(=O)N3CCCCC3)ccc21)NCc1cccc(Cl)c1 | inactive: 5.82% | 
CC1CCC(NC(=O)c2cc3c(Cl)nc4ccccc4c3s2)CC1 (configuration not stated) | inactive: -5.14% | 
CC(C)N(Cc1ccccc1)C(=O)Cn1ncc2c([nH]c3ccccc32)c1=O | inactive: 14.4% | 
CCc1nnc(NC(=O)C(=O)c2cc(C)n(-c3ccccc3)c2C)s1 | inactive: 2.01% | 
Cc1cccn2c(=O)cc(COc3cccc(NC(=O)COc4ccc(F)cc4)c3)nc12 | inactive: 1.07% | 
